Source: PubChem BioAssay AID588855 (National Center for Advancing Translational Sciences (NCATS), 2011)
The whole screen tested about 410,000 compounds, of which about 5,000 (1.2%) were called active. This list was built around the results that the source calls inconclusive (neither active nor inactive); the mix of calls is not that of the screen. Calls come from the whole dose curve; as a rule, active = well fitted inhibition curve with a large enough effect; inconclusive = small, poorly fitted or top-dose-only effect; inactive = no such curve, though single readings can be large or run the other way. Potencies of inconclusive entries are doubtful fits and often do not repeat.

Assay: qHTS for Inhibitors of TGF-b; note: nearly all actives have a fitted effect of over 65% in size
Conditions: HepG2 CAGA-GFP TGF-b/SMAD3 reporter, GFP fluorescence, 18 h, TGF-beta stimulated, 500 pg/mL final; series mostly up to 46.1 µM; activity, negative = inhibition: at the top concentration
Procedure, shortened: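 Per well, imaged GFP fluorescence of HEPG2 CAGA-GFP cells gives the signal; cells get compound, then TGF-beta (500 pg/mL final), 18 h at 37 degrees C; %Activity versus -TGF-beta and +DMSO controls.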
% is set by controls: 0 for no effect and ±100 for the full control effect; potency is the fitted concentration of half-maximal effect; tags give direction and shape of the fitted curve.

SMILES	Potency	activity, negative = inhibition
COc1cc(O)c(C(CCN2CCN(c3ccccc3)CC2)c2cc(OC)c(OC)c(OC)c2)c(OC)c1 (stereo unspecified)	inconclusive: 35.5 µM [inhibitor, single point]	
O=C(CSc1nnc2sc3ccccc3n12)NCc1ccco1		inactive: -8.8%
C[n+]1c(/C=C/c2ccnc3ccccc23)cc(/C=C/c2ccnc3ccccc23)c2ccccc21	inconclusive: 12.6 µM [inhibitor, single point]	
O=C(C1COc2ccccc2O1)N(Cc1cccnc1)c1nc2c(F)cccc2s1 (stereo unspecified)	inconclusive: 35.5 µM [inhibitor, single point]	
Cc1sc2ncnc(SCC(=O)N3c4ccccc4Sc4ccc(Cl)cc43)c2c1C		inactive: -6.86%
CC1CCN(S(=O)(=O)c2cc(C(=O)N3CCN(c4cccc(Cl)c4)CC3)n(C)c2)CC1	inconclusive: 6.31 µM [inhibitor, partial curve]	
O=C(Nc1ccc2c(c1)OCCO2)C(c1cc2ccccc2o1)N1CCC(Cc2ccccc2)CC1 (stereo unspecified)		inactive: -22.5%
Cc1ccc2oc(C(=O)NCc3ncc(C)[nH]3)c(C)c2c1		inactive: 0%
Cc1ccc(Nc2c3c(nc4nncn24)CCC3)c(C)c1	inconclusive: 17.8 µM [inhibitor, partial curve, poor fit]	
COc1ccc(NC(=O)C2Cc3c(-c4ccncc4)ccnc3O2)cc1OC (stereo unspecified)		inactive: 24.3%
N=C1SC(c2ccccc2)C(=O)N1c1ncc(Cc2ccccc2)s1 (stereo unspecified)	inconclusive: 15.8 µM [inhibitor, single point]	
COC(=O)c1c(NC(=O)CSc2ncnc3ccccc23)sc(C)c1C	inconclusive: 0.631 µM [inhibitor, full curve]	
Cc1cccc(C)c1OCc1nnc(SCC(=O)Nc2ccc(N3CCOCC3)cc2)o1		inactive: 5.62%
CC1(c2nnc(-c3ccncc3)o2)CC(c2c(Cl)cccc2Cl)=NO1 (stereo unspecified)		inactive: -0.5%
CC(C(=O)NCCS(=O)(=O)c1ccc(Cl)cc1)S(=O)(=O)c1ccc(Cl)cc1 (stereo unspecified)		inactive: 40.3%
Cc1ccc(S(=O)(=O)NCc2ccncc2)cc1C(=O)NCC(C)C		inactive: 0.907%
COc1ccccc1Nc1c2c(nc3ccc(NC(=O)c4ccccc4F)cc13)CCCC2	inconclusive: 35.5 µM [inhibitor, single point]	
Cc1nn(Cc2ccc(Cl)cc2)c(C)c1NC(=O)CCCn1nc(C)c([N+](=O)[O-])c1C		inactive: -27.3%
COc1ccc([C@H]2CC(=O)C=C(c3ccc(Cl)c(C(F)(F)F)c3)C2)cc1	active: 8.91 µM	
C/C(=N\NC(=S)NCc1ccccc1)c1ccc2c(c1)OCCO2	inconclusive: 35.5 µM [inhibitor, single point]	
O=C(CN1CCCCC1)Nc1cc(Cl)ccc1Oc1ccccc1		inactive: 7.56%
CC1(C)Cc2ccccc2-c2nnc(-c3ccco3)n21		inactive: -13.1%
COc1ccc(-c2nc3ccc(Br)cn3c2Cc2ccccc2C(F)(F)F)cc1OC	inconclusive: 20 µM [inhibitor, partial curve, poor fit]	
CS(=O)(=O)N(CC(=O)NCc1ccncc1)c1cc(Cl)ccc1Cl	inconclusive: 0.562 µM [inhibitor, full curve, poor fit]	

SMILES	Potency	activity, negative = inhibition
COc1ccc(C2C3C=CCC(C)C3C(=O)N2Cc2ccccc2)cc1Cl (stereo unspecified)	inconclusive: 35.5 µM [inhibitor, single point]	
C[C@H](CO)N1C[C@H](C)[C@H](CN(C)Cc2ccc(-c3ccccc3)cc2)Oc2ccc(NS(=O)(=O)c3ccccc3)cc2CC1=O	inconclusive: 35.5 µM [inhibitor, single point]	
Cc1ccc(NC(=O)CCC(=O)OCC(=O)c2ccc(Oc3ccc([N+](=O)[O-])cc3)cc2)cc1C		inactive: 0.307%
O=S(=O)(Nc1cccc2cccnc12)c1ccc2ccccc2c1	inconclusive: 3.16 µM [inhibitor, partial curve, poor fit]	
C/C(=N/NC(=O)C1CCN(S(=O)(=O)c2ccc(C)cc2)CC1)c1cccc([N+](=O)[O-])c1		inactive: 10.5%
Cc1ccc2c(CN(C)Cc3ccccc3)cc(=O)oc2c1C		inactive: -6.31%
Cc1ccc(N(C(=O)Cc2c[nH]c3ccccc23)C(C(=O)NC2CCCCC2)c2ccco2)cc1 (stereo unspecified)	inconclusive: 35.5 µM [inhibitor, single point]	
COc1ccc(C=NN=C2c3ccccc3-c3ccccc32)cc1O	inconclusive: 35.5 µM [inhibitor, single point]	
Nc1nc2ccccc2n1CCOc1ccc(Cl)cc1	inconclusive: 35.5 µM [inhibitor, single point]	
Cc1cc2c(cc1NC(=O)c1ccccc1Cl)n(C)c(=O)c(=O)n2C		inactive: -36.4%
Cc1ccc(N/C(N)=N/c2nc(C(F)(F)F)cc(C(F)(F)F)n2)cc1	inconclusive: 7.08 µM [inhibitor, partial curve]	
C=CCNc1nc(Nc2ccc(-c3nc4ccccc4o3)cc2)nc(N2CCOCC2)n1	inconclusive: 22.4 µM [inhibitor, single point]	
O=C(Nc1ccccc1N1CCCC1)C1CCN(C(=O)c2ccc(F)cc2)CC1		inactive: 13.1%
O=[N+]([O-])c1cc(F)c(N2CCOCC2)cc1N1CCCCC1	inconclusive: 35.5 µM [inhibitor, single point]	
Cc1cccc(NC(=O)Cn2c(/C=C/c3ccccc3)nc3ccccc32)c1	inconclusive: 7.08 µM [inhibitor, partial curve]	
COC(=O)CCCCCn1c(-c2ccccc2)cn2c3c(=O)n(C)c(=O)n(C)c3nc12		inactive: -22.2%
COc1cc(C(=O)N(Cc2cc3cc(C)ccc3[nH]c2=O)CC2CCCO2)cc(OC)c1OC (stereo unspecified)	inconclusive: 6.31 µM [inhibitor, single point]	
O=c1[nH]c2ccc(S(=O)(=O)N3CCN(c4ccccc4F)CC3)cc2s1	inconclusive: 11.2 µM [inhibitor, partial curve, poor fit]	
CCOc1ccc(-c2ccc(SC)nn2)cc1		inactive: 17.2%
Nc1cc2nn(-c3ccccc3)nc2cc1Cl	active: 2.24 µM	
O=C(NC1CC1)c1cccc(NC(=O)C2CCN(S(=O)(=O)c3cccc(C(F)(F)F)c3)CC2)c1	inconclusive: 6.31 µM [inhibitor, partial curve]	
CCn1c(=O)c(C(=O)Nc2ccccc2S(N)(=O)=O)c(O)c2ccccc21	inconclusive: 35.5 µM [inhibitor, single point]	
COc1cccc2c1C(CO)N1C(C#N)C3CC(C(=O)O)C(C1C2)N3C (stereo unspecified)	active: 1.26 µM	
CS(=O)(=O)N1CCc2cc(-c3csc(NC(=O)C(c4ccccc4)c4ccccc4)n3)ccc21		inactive: -2.29%

SMILES	Potency	activity, negative = inhibition
CCCc1cc(-c2n[nH]c(C(=O)OCC)c2-c2cscn2)c(O)cc1O	inconclusive: 35.5 µM [inhibitor, single point]	
COc1ccc(-c2nnc(NC(=O)C(C)C)o2)cc1		inactive: -3.25%
CC1(c2nnc(-c3cccc(Cl)c3)o2)CC(c2ccc(C#N)cc2)=NO1 (stereo unspecified)		inactive: -15.5%
COc1cc(C(=O)N2CCN(c3cc(Cl)ccc3Cl)CC2)cc(OC)c1OC	inconclusive: 3.16 µM [inhibitor, partial curve, poor fit]	
COc1ccc(C(CCNCc2ccccc2)c2ccc(F)cc2)cc1 (stereo unspecified)	active: 17.8 µM	
O=C1CC(N(CCc2ccccc2)C(=S)Nc2ccccc2)C(=O)N1c1ccccc1 (stereo unspecified)	inconclusive: 25.1 µM [inhibitor, single point]	
CC(C)c1ccc(NC(=S)N2CCCC2)cc1		inactive: -2.7%
C(=C\c1ccccc1)/CN1CCN(C(c2ccnc3ccccc23)c2nnnn2-c2ccc3c(c2)OCCO3)CC1 (stereo unspecified)	inconclusive: 8.91 µM [inhibitor, partial curve]	
Fc1cccc(/C=N/Nc2nc3ccccc3[nH]2)c1		inactive: -24.6%
COc1cccc(/C=N/NC(=O)CN(CCc2ccccc2)S(=O)(=O)c2ccc(NC(C)=O)cc2)c1	inconclusive: 35.5 µM [inhibitor, single point]	
CC(C)Sc1nc(N2CCOCC2)c2c(c1C#N)CC(C)(C)N(C)C2	inconclusive: 35.5 µM [inhibitor, single point]	
COCCNC(=O)CNC(=O)c1nn(-c2ccc(OC)c(Cl)c2)c(=O)c2ccccc12		inactive: -10.1%
COc1ccccc1C(=O)Oc1c(Sc2ccccc2)c(C)nn1-c1ccccc1	inconclusive: 31.6 µM [inhibitor, single point]	
CCCCCCCCCC1NC(C(=O)O)Cc2c1[nH]c1ccccc21 (stereo unspecified)		inactive: -16.1%
O=C(Nc1cccc(Cl)c1)c1cc(-c2ccc3c(c2)OCO3)on1	inconclusive: 0.708 µM [inhibitor, full curve, poor fit]	
Cc1ccc(CCNC(=O)CN2C(=O)COc3ccc(S(=O)(=O)N4CCCCCC4)cc32)cc1	inconclusive: 35.5 µM [inhibitor, single point]	
O=S1(=O)CCN2C(c3ccco3)=CSC2=N1	inconclusive: 1.12 µM [inhibitor, partial curve, poor fit]	
Cc1ccccc1N(C(=O)Cn1nnc(-c2cccs2)n1)C(C(=O)NCCC(C)C)c1ccco1 (stereo unspecified)	inconclusive: 3.55 µM [inhibitor, full curve, poor fit]	
CCn1c(CSc2nc3ccccc3s2)nc2ccccc21	inconclusive: 20 µM [inhibitor, single point]	
N#Cc1c(NC(=O)CN2CCCCC2)sc2c1CCC2	inconclusive: 20 µM [inhibitor, single point]	
COc1cc(CCC(=O)Nc2cc(C)cc(C)c2)cc(OC)c1OC		inactive: -4.27%
Oc1ccccc1C1CCCCC1c1ccccc1 (stereo unspecified)	inconclusive: 6.31 µM [inhibitor, partial curve, poor fit]	
O=C(COC(=O)c1cnccn1)c1ccc2c(c1)CCCC2	inconclusive: 6.31 µM [inhibitor, single point]	
